The inconclusive results got no clear call from the source; some entries with a clear call stand among them for comparison. Potencies of inconclusive entries are doubtful fits and often do not repeat. Calls of active or inactive are those of the source. Calls follow the shape of the dose curve; as a rule, active = well fitted curve in the direction sought with a large enough effect; inconclusive = small, poorly fitted or top-dose-only effect, or another doubt; inactive = no such curve, though single readings can be large; an effect the other way counts as inactive or inconclusive.
Legend:
[1] = Primary redox qHTS assay for identification of artifact compounds. (AID 1845223)
Outline: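 Redox-cycling detection via DTT (250 uM final) oxidation coupled to Amplex Red (25 uM)/HRP (250 mU/mL) in HBSS. 15 min preincubation plus 30 min after DTT, room temperature. Ex/Em 525/598 nm; 4-parameter Hill fit against DMSO and 10 uM DA3003.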

[2] = Quantitative High-Throughput drug screen in 47 multiple myeloma cell lines against the NCATS MIPE library collection: FR4_PLB cell viability assay (AID 1918924; also: nearly all actives have a fitted effect of over 35% in size); details: FR4_PLB myeloma cells viability, CellTiter-Glo ATP, 48 h; viability (% of DMSO control): at 45.8 µM (top of the series)
Outline: (§1)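 Relative luminescence from CellTiter-Glo served as the viability signal, referenced to DMSO-treated (100%) and cell-free medium (0%) controls. Treatment lasted 48 hours at 37C with 500 cells per well.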

[3] = Quantitative High-Throughput drug screen in 47 multiple myeloma cell lines against the NCATS MIPE library collection: AMO1_DSMZ cell viability assay (AID 1918927; also: nearly all actives have a fitted effect of over 30% in size)
Outline: (§2)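 CellTiter-Glo ATP luminescence gave viability after 48 h compound treatment at 37C of 500 multiple myeloma cells per well. Normalisation used DMSO-only wells as 100% and media-only wells as 0% viability; primary qHTS of approved and investigational drugs.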

[4] = Quantitative High-Throughput drug screen in 47 multiple myeloma cell lines against the NCATS MIPE library collection: Karpas620_DSMZ cell viability assay (AID 1918959); also: nearly all actives have a fitted effect of over 30% in size
Outline: as §1

[5] = Quantitative High-Throughput drug screen in 47 multiple myeloma cell lines against the NCATS MIPE library collection: KMM1_JCRB cell viability assay (AID 1918960); details: KMM1 myeloma viability, CellTiter-Glo ATP luminescence, 48 h; viability (% of DMSO): at 45.8 µM (top of the series); also: nearly all actives have a fitted effect of over 30% in size
Outline: (§3)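 500 cells/well; MIPE 4.0 library pinned in; 48 h, 37 °C, 5% CO2; CellTiter-Glo ATP luminescence. Controls: DMSO = 100% viability, medium only = 0%.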

[6] = Quantitative High-Throughput drug screen in 47 multiple myeloma cell lines against the NCATS MIPE library collection: Karpas417_ECACC cell viability assay (AID 1918961); details: Karpas417 myeloma viability, CellTiter-Glo ATP luminescence, 48 h; viability (% of DMSO): at 45.8 µM (top of the series) unless noted
Outline: as §1

[7] = Quantitative High-Throughput drug screen in 47 multiple myeloma cell lines against the NCATS MIPE library collection: KHM11_PLB cell viability assay (AID 1918962); details: KHM11 myeloma cell viability, CellTiter-Glo ATP luminescence, 48 h; viability, % of DMSO control: at 45.8 µM (top of the series); also: nearly all actives have a fitted effect of over 35% in size
Outline: as §1

[8] = Quantitative High-Throughput drug screen in 47 multiple myeloma cell lines against the NCATS MIPE library collection: Delta47_JCRB cell viability assay (AID 1918925; also: nearly all actives have a fitted effect of over 45% in size); details: Delta47 myeloma viability, CellTiter-Glo ATP, 48 h; viability (% of DMSO): at 45.8 µM (top of the series) unless noted
Outline: as §2

[9] = Quantitative High-Throughput drug screen in 47 multiple myeloma cell lines against the NCATS MIPE library collection: EJM_DSMZ cell viability assay (AID 1918926; also: nearly all actives have a fitted effect of over 30% in size); details: EJM myeloma cell viability, CellTiter-Glo ATP, 48 h; viability, % of control: at 45.8 µM (top of the series)
Outline: as §2

[10] = Quantitative High-Throughput drug screen in 47 multiple myeloma cell lines against the NCATS MIPE library collection: ARP1_JJKsccF8 cell viability assay (AID 1918928; also: nearly all actives have a fitted effect of over 40% in size); details: ARP1 myeloma cells viability, CellTiter-Glo ATP, 48 h; viability: at 45.8 µM (top of the series)
Outline: as §3

[11] = Quantitative High-Throughput drug screen in 47 multiple myeloma cell lines against the NCATS MIPE library collection: ARD_JJKsccE7 cell viability assay (AID 1918929)
Outline: as §2
Potency is read from the fitted curve at half-maximal effect; tags tell the direction and shape of the fitted curve.

COc1ccccc1N1CCN(CCN(C(=O)C2CCCCC2)c2ccccn2)CC1
inconclusive: Potency [1] 23.8 µM [activator, partial curve, poor fit] | Potency [4] 1.66 µM [cytotoxic, full curve, poor fit] | Potency [5] 29.6 µM [cytotoxic, partial curve, poor fit] | viability (% of DMSO) [6] 32% [cytotoxic] | Potency [7] 7.43 µM [cytotoxic, partial curve, poor fit]
inactive: Potency [2]
active: Potency [3] 2.96 µM

Clc1ccc(C(c2ccccc2Cl)C(Cl)Cl)cc1 (stereo unspecified)
inconclusive: Potency [2] 20.9 µM [cytotoxic, partial curve, poor fit] | Potency [8] 20.9 µM [cytotoxic, partial curve, poor fit] | Potency [9] 20.9 µM [cytotoxic, partial curve] | Potency [10] 33.2 µM [cytotoxic, single point] | Potency [11] 4.18 µM [cytotoxic, partial curve, poor fit] | Potency [5] 7.43 µM [cytotoxic, single point] | Potency [6] 33.2 µM [rising, partial curve, poor fit] | Potency [7] 18.7 µM [cytotoxic, partial curve, poor fit]
inactive: Potency [4]
active: Potency [3] 1.87 µM

CN[C@@H](C)C(=O)N[C@H]1CN(C(=O)CC(C)C)CC[C@H]2CC[C@@H](C(=O)NC(c3ccccc3)c3ccccc3)N2C1=O
inactive: Potency [1]
inconclusive: Potency [2] 37.2 µM [cytotoxic, single point] | Potency [8] 10.5 µM [cytotoxic, partial curve] | Potency [10] 33.2 µM [cytotoxic, single point] | Potency [5] 5.9 µM [cytotoxic, full curve] | Potency [6] 13.2 µM [cytotoxic, partial curve, poor fit] | Potency [7] 7.43 µM [cytotoxic, full curve, poor fit]

CC[C@@H]([C@H](C)O)n1ncn(-c2ccc(N3CCN(c4ccc(OCC5CO[C@@](Cn6cncn6)(c6ccc(F)cc6F)C5)cc4)CC3)cc2)c1=O (stereo partly specified)
inactive: Potency [7]
inconclusive: Potency [2] 18.7 µM [cytotoxic, partial curve] | Potency [8] 23.5 µM [cytotoxic, partial curve, poor fit] | Potency [9] 26.4 µM [cytotoxic, partial curve, poor fit] | Potency [10] 14.8 µM [cytotoxic, partial curve] | Potency [11] 7.43 µM [cytotoxic, single point] | Potency [6] 8.33 µM [cytotoxic, single point]
active: Potency [3] 7.43 µM | Potency [5] 5.9 µM

O=C(Nc1cccnc1)N1CCC(Cc2cccc(Oc3ccc(C(F)(F)F)cn3)c2)CC1
inactive: Potency [1]
inconclusive: Potency [6] 9.35 µM [cytotoxic, partial curve, poor fit]
active: Potency [8] 9.35 µM | Potency [5] 7.43 µM

CN1CCC(=C2c3ccccc3C=Cc3ccccc32)CC1
active: Potency [8] 9.35 µM
inconclusive: Potency [2] 20.9 µM [cytotoxic, partial curve] | Potency [9] 20.9 µM [cytotoxic, partial curve] | Potency [3] 18.7 µM [cytotoxic, partial curve] | Potency [10] 20.9 µM [cytotoxic, partial curve] | Potency [4] 23.5 µM [cytotoxic, single point] | Potency [7] 26.4 µM [cytotoxic, partial curve, poor fit]
inactive: Potency [11] | Potency [6]

CC(C)NCC(O)COc1ccc(COCCOC(C)C)cc1 (stereo unspecified)
inactive: Potency [10] | Potency [7]
inconclusive: Potency [2] 0.0012 µM [rising, full curve, poor fit] | Potency [8] 0.662 µM [cytotoxic, full curve, poor fit] | Potency [9] 0.003 µM [cytotoxic, full curve, poor fit] | Potency [3] 0.0053 µM [cytotoxic, full curve, poor fit] | Potency [11] 0.003 µM [cytotoxic, full curve, poor fit] | Potency [6] 0.469 µM [cytotoxic, full curve, poor fit]

COc1ccc2cc(-c3nc(-c4ccc(S(C)=O)cc4)[nH]c3-c3ccncc3)ccc2c1 (stereo unspecified)
inconclusive: Potency [2] 29.6 µM [cytotoxic, single point] | Potency [9] 5.26 µM [cytotoxic, partial curve, poor fit] | Potency [3] 29.6 µM [cytotoxic, single point] | Potency [10] 11.8 µM [cytotoxic, full curve] | Potency [11] 37.2 µM [cytotoxic, partial curve, poor fit] | Potency [6] 29.6 µM [cytotoxic, partial curve, poor fit] | Potency [7] 20.9 µM [cytotoxic, partial curve]
active: Potency [8] 16.6 µM | Potency [5] 23.5 µM

NCCS(=O)(=O)O
inactive: Potency [2] | Potency [8] | Potency [9] | Potency [3] | Potency [10] | Potency [11]
inconclusive: Potency [4] 0.001 µM [cytotoxic] | Potency [6] 33.2 µM [rising, single point] | Potency [7] 8.33 µM [cytotoxic, partial curve, poor fit]

CN(C)C1CCN(C(=O)c2ccc(NC(=O)Nc3nc(N4CCOCC4)nc(N4CCOCC4)n3)cc2)CC1
inactive: Potency [1]
active: Potency [6] 0.0662 µM
inconclusive: Potency [8] 0.0148 µM [cytotoxic, full curve] | Potency [11] 0.105 µM [cytotoxic, full curve] | Potency [5] 0.0166 µM [cytotoxic, full curve] | Potency [7] 0.0132 µM [cytotoxic, full curve]

Clc1ccccc1C(c1ccccc1)(c1ccccc1)n1ccnc1
inconclusive: Potency [2] 26.4 µM [cytotoxic, single point] | Potency [8] 29.6 µM [cytotoxic, single point] | Potency [3] 4.69 µM [cytotoxic, partial curve, poor fit] | Potency [10] 26.4 µM [cytotoxic, single point] | Potency [11] 5.9 µM [cytotoxic, partial curve, poor fit] | Potency [4] 5.9 µM [cytotoxic, partial curve, poor fit] | Potency [5] 5.26 µM [cytotoxic, partial curve, poor fit]
active: Potency [6] 0.0093 µM
inactive: Potency [9] | Potency [7]

c1cc(-c2sc(-c3ccncc3)c(-c3ccncc3)c2-c2ccncc2)ccn1
inconclusive: Potency [2] 20.9 µM [cytotoxic, partial curve] | Potency [8] 33.2 µM [cytotoxic, partial curve, poor fit] | Potency [9] 18.7 µM [cytotoxic, partial curve, poor fit] | Potency [3] 14.8 µM [cytotoxic, partial curve, poor fit] | Potency [11] 0.0264 µM [cytotoxic, full curve, poor fit] | Potency [5] 14.8 µM [cytotoxic, partial curve]
inactive: Potency [10]

O=C(O)C1=NC(C(=O)O)CC(C=CN2c3cc(O)c(OC4OC(CO)C(O)C(O)C4O)cc3CC2C(=O)O)=C1 (stereo unspecified)
inconclusive: Potency [3] 0.0148 µM [cytotoxic, full curve, poor fit] | Potency [10] 11.8 µM [cytotoxic, single point] | Potency [11] 33.2 µM [cytotoxic, single point] | Potency [7] 0.003 µM [rising, full curve, poor fit]
inactive: Potency [2] | Potency [8] | Potency [9] | Potency [5] | Potency [6]

O=c1[nH]cnc2c1ncn2[C@H]1CC[C@@H](CO)O1
inactive: Potency [1] | Potency [10] | Potency [7]
inconclusive: Potency [8] 3.72 µM [rising, partial curve, poor fit] | Potency [11] 33.2 µM [rising, single point] | Potency [6] 0.0017 µM [cytotoxic, full curve, poor fit]

COc1ccc2c(Oc3ccc(NC(=O)c4c(C)n(CC(C)(C)O)n(-c5ccccc5)c4=O)nc3)ccnc2c1
inconclusive: Potency [1] 10.6 µM [activator, partial curve, poor fit] | Potency [8] 14.8 µM [cytotoxic, partial curve, poor fit] | Potency [9] 23.5 µM [cytotoxic, single point] | Potency [3] 18.7 µM [cytotoxic, partial curve] | Potency [10] 37.2 µM [cytotoxic, single point] | Potency [11] 18.7 µM [cytotoxic, partial curve] | Potency [7] 9.35 µM [rising, partial curve, poor fit]

Nc1ncnc2nc(-c3ccc(N4CCOCC4)nc3)cc(-c3cccc(Br)c3)c12
inconclusive: Potency [2] 20.9 µM [cytotoxic, partial curve, poor fit] | Potency [8] 18.7 µM [cytotoxic, partial curve, poor fit] | Potency [9] 20.9 µM [cytotoxic, partial curve] | Potency [3] 18.7 µM [cytotoxic, partial curve] | Potency [10] 20.9 µM [cytotoxic, partial curve, poor fit] | Potency [11] 9.35 µM [cytotoxic, single point] | Potency [5] 9.35 µM [cytotoxic, partial curve]
inactive: Potency [6] | Potency [7]
